Laboratory results as given in the supplement of paper PMC9433436.
± gives the standard deviation of the averaged measurements. In all, about 4,100 sequences were measured (“relative kcat/Km (krel) vs genomic leader AAAGAU”: median about 1.7, highest 2% from about 6.5 on). The list shows a part of the results, in another mix than the full data.

Biological target: T1, E. coli RNase P holoenzyme (M1 P RNA + rnpA protein) (UniProt P0A7Y8)
T1 sequence: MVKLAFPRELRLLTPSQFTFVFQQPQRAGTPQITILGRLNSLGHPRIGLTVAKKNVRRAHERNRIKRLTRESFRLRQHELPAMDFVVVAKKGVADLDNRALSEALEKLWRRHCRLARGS
Assay: relative kcat/Km (krel) vs genomic leader AAAGAU (relative (reference leader = 1)); higher = faster RNase P cleavage
Method: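 HTS-Kin: a pool of ptRNA-Met (21C construct) with all 4096 combinations of 5' leader nucleotides N(-6) to N(-1) was processed in vitro by E. coli RNase P (P RNA + rnpA/C5 protein) under multiple-turnover conditions at 37 C, pH 8, 17.5 mM MgCl2. Residual substrate was Illumina-sequenced at several fractions reacted, and relative kcat/Km (krel) was computed by internal competition kinetics, calibrated to the genomic leader (AAAGAU = 1). The listed hexamer is the varied N(-6)..N(-1) leader (DNA letters), and it sits between a fixed 5' stem-loop flank (GCAUGCACGAAAGUGCGUGCUAUGAA) and the mature tRNA-Met starting GGCUACGUAGCUCAGUUGG. Two technical replicates are averaged.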

[1] = fraction of substrate reacted: ~9-10% (9.79% repeat 1, 9.1% repeat 2)
[2] = fraction of substrate reacted: ~13-16% (15.68% repeat 1, 13.17% repeat 2)
[3] = fraction of substrate reacted: ~26-29% (28.66% repeat 1, 26.4% repeat 2)

Row | Sequence | relative kcat/Km [1] | relative kcat/Km [2] | relative kcat/Km [3]
1 | TAATGC | 2.58 ± 0.24 | 3.62 ± 0.99 | 4.98 ± 2.8
2 | ACCGTA | 2.19 ± 0.39 | 2.54 ± 0.21 | 4.07 ± 1.4
3 | CCACCG | – | – | 1.08 ± 0.58
4 | AAGCCG | – | 0.587 ± 0.34 | 0.539 ± 0.4
5 | GCACAA | – | 0.641 ± 0.061 | 1.63 ± 0.8
6 | CCAGAC | 2.22 ± 0.29 | 2.1 ± 1.1 | 3.22 ± 0.77
7 | ATGTAC | 3.03 ± 0.37 | 3.81 ± 0.94 | 5.39 ± 2.7
8 | TAGCTT | 1.84 ± 0.3 | 2.04 ± 0.21 | 2.8 ± 1.2
9 | TCTCGT | – | – | 2.41 ± 2.1
10 | GTATCA | 2.19 ± 0.47 | 2.13 ± 0.37 | 2.98 ± 1.5
11 | ACCCCT | 2.17 ± 0.44 | 1.89 ± 0.53 | 2.94 ± 0.95
12 | AAGGGT | – | – | 0.872 ± 0.84
13 | CGCATT | 2.39 ± 0.24 | 2.95 ± 0.92 | 4.66 ± 2
14 | TCATGA | 3.2 ± 0.38 | 4.21 ± 1.1 | 5.56 ± 2
15 | TTAACA | – | 1.71 ± 0.67 | 1.92 ± 0.24
16 | CTCTAA | 4.48 ± 1.2 | 6.21 ± 1.1 | –
17 | GGCTCT | 2.27 ± 1.5 | 2.02 ± 0.07 | 2.46 ± 0.57
18 | TGCCGA | 2.99 ± 0.37 | 2.99 ± 1.4 | 4.69 ± 1.9
19 | AAACAA | 1.51 ± 0.087 | 1.86 ± 0.37 | 2.11 ± 0.75
20 | TTATAG | 2.25 ± 1.6 | 2.63 ± 0.53 | 4.22 ± 1.9
21 | TCGGCA | 1.68 ± 0.99 | 0.991 ± 0.43 | 0.743 ± 0.011
22 | GTCGGC | – | – | 1.98 ± 1.3
23 | AGAACC | 1.66 ± 1.1 | 1.82 ± 0.43 | 1.82 ± 0.17
24 | CGCCTC | 2.29 ± 0.59 | 2.79 ± 1.4 | 3.67 ± 1.4
25 | TGACTG | – | – | 0.873 ± 0.55
26 | AAGGTT | 0.832 ± 0.58 | – | –
27 | GAATTC | 1.77 ± 0.084 | 1.85 ± 0.052 | 2.35 ± 0.56
28 | CAAAAA | 1.14 ± 0.13 | 0.985 ± 0.72 | 2.42 ± 0.98
